This is an account of results in the RNAGym collection of RNA variant scans (doi:10.7554/elife.90254).

The source gives no read counts; variants with many changes may rest on few reads.

B1: LINE1-mini (parent)
chain: GGCAGAGCUCAACACAGCGUGGCAAAGUGGCUGUGGCUAGACUGCC

This series covers variants of B1. Kind of series: self-cleavage, relative activity (ratio to wild type); higher = more cleavage; in vitro, sequencing; the parent is a self-cleaving ribozyme.
In the case of C3U C8U A41G C46A, the self-cleavage stood at 0.56.

On to C3U G7C C10U G19U U43G, for which the self-cleavage turned out to be 0.02.

Regarding C3U G21C G33U G36U, the self-cleavage came out at 0.06.

As for C3U C42A U43A, the self-cleavage was determined as 0.09.

For the variant A4C C13G C18U, the self-cleavage came out at 0.06.

As to C3U G5A C13G U32G, the self-cleavage was determined as 0.07.

On to C3U C18A A39C, for which the self-cleavage turned out to be 0.02.

On to A4C C8U A16C G17C, for which the self-cleavage was determined as 0.11.

Turning to A4C A25U C42U U43A, the self-cleavage worked out at 0.04.

A4C C8U G17C G21C C31G A39U: the self-cleavage was found to be 0.02.

C3U U28A G29U: the self-cleavage was determined as 0.03.

On to A4C G5C G7C G33U U34C C37U, for which the self-cleavage was 0.17.

As for A4C G7A G22C G29A U43A, the self-cleavage amounted to 0.09.

C3U G22C G29U: the self-cleavage was 0.28.

As to A4C G21A C23G, the self-cleavage was found to be 0.7.

For C3U C13U C18A G27C, the self-cleavage was 0.05.

Regarding C3U G36U G40U, the self-cleavage was 0.22.

Consider C3U G36U G40C, for which the self-cleavage came to 0.08.

C3U C23A U32C: the self-cleavage turned out to be 0.28.

With A4C C10U G30C U32G, the self-cleavage is 0.01.

For C3U G5C G7U C13G A24C A25C G35C, the self-cleavage is 0.03.

For C3U G17U G19C, the self-cleavage came out at 1.24.

With C3U C37G C46A, the self-cleavage is 0.05.

Turning to A4C C13A C23A, the self-cleavage amounted to 0.1.

On to C3U G21A A26U A41U, for which the self-cleavage is 0.7.

A4C G5U C23A G44A: the self-cleavage was found to be 0.08.

As for C3U C8G C10A A16G G27C C37A, the self-cleavage was found to be 0.01.

Take C3U U9G C23A: the self-cleavage was determined as 0.05.

For the variant C3U C23A A39G C46A, the self-cleavage turned out to be 0.13.

Consider A4C A11U A25G C37A C45U C46A, for which the self-cleavage is 0.

Regarding C3U C8U U38A, the self-cleavage is 0.22.

In the case of C3U U9A G17C G27C G35U C37G, the self-cleavage was determined as 0.06.

A4C G21C C31U G44U: the self-cleavage is 0.01.

As to C3U G5C A11U C13A C23U, the self-cleavage came to 0.02.

As to C3U G5C C10A C13U A25G G44A, the self-cleavage stood at 0.02.

Consider C3U C18A C46U, for which the self-cleavage is 0.08.

For A4C G5C C31A C42A, the self-cleavage was 0.11.

With C3U C15U G27C, the self-cleavage is 0.08.

As for C3U G7A C10A C18A A41C C45A, the self-cleavage was 0.

Turning to A4C C42G G44U, the self-cleavage came to 0.04.

In the case of A4C A16C G22U A24U A25U, the self-cleavage is 0.07.

For C3U C15U U20G C23U G29C, the self-cleavage stood at 0.85.

On to C3U C31U C37A, for which the self-cleavage amounted to 0.03.

For A4C C8A A16U G22C U38C, the self-cleavage came to 0.22.

As for A4C G7C G21C G29U G35C G36C U43A C46A, the self-cleavage was 0.07.

Take A4C C10U A14C G19A G27U C45G: the self-cleavage is 0.01.

For the variant C3U G5A C18A G36U, the self-cleavage came out at 0.04.

A4C G5A C13U G22C C46A: the self-cleavage was found to be 0.05.

Regarding C3U C10G C23A A25C, the self-cleavage was found to be 0.12.

On to C3U C10A G21U U38A, for which the self-cleavage was 0.13.

Turning to C3U C10G A39C G40A, the self-cleavage was determined as 0.02.

Consider C3U C10U A14G G21U G35U G40A, for which the self-cleavage was determined as 0.06.

A4C C13G C18U G27A U32C: the self-cleavage was 0.04.

With A4C C31G G44A, the self-cleavage turned out to be 0.01.

Turning to C3U G5A C31G, the self-cleavage amounted to 0.1.

C3U C8G G22U A26C: the self-cleavage turned out to be 0.05.

Regarding A4C A16C G22A A24G A41U, the self-cleavage came to 0.

As for A4C C10A C37U, the self-cleavage turned out to be 0.04.

As for A4C G17U C23A, the self-cleavage stood at 0.11.

For the variant C3U G5C G33U C46A, the self-cleavage was 0.02.

A4C A11U G17A C18A G21U: the self-cleavage stood at 0.01.

Take A4C G19A A26G U28G C46U: the self-cleavage stood at 0.16.

For the variant C3U G30C G33A A41G, the self-cleavage is 0.05.

In the case of C3U C31U C45G, the self-cleavage came to 0.03.

As for A4C G19A G22C C46U, the self-cleavage came out at 0.17.

As for C3U U28A G35A, the self-cleavage came to 0.04.

Consider C3U G7U C8G A11U C13U, for which the self-cleavage was 0.17.

With C3U U9C C13U G17C G36A, the self-cleavage is 0.05.

With C3U C10A G35A, the self-cleavage stood at 0.02.

For the variant C3U G21C C23A U28G, the self-cleavage is 0.09.

For C3U G33A A41U, the self-cleavage was 0.08.

Regarding C3U C8U A16G G44A, the self-cleavage was 0.05.

For the variant C3U C8U G30U C31G U38A, the self-cleavage was 0.16.

Take C3U U28C C31A U43C: the self-cleavage was 0.01.

With A4C A11U G27U G29A, the self-cleavage stood at 0.02.

As for A4C A11U G33A, the self-cleavage stood at 0.03.

As to A4C C8G U34A C37U G40C C46G, the self-cleavage came to 0.02.

For the variant C3U G27A G35U, the self-cleavage was 0.34.

With A4C G17C U20G, the self-cleavage was 0.

In the case of C3U G30U G33C, the self-cleavage came out at 0.05.

With C3U C8G G19A G30C, the self-cleavage came to 0.02.

For C3U C10U C13A, the self-cleavage is 0.05.

In the case of A4C C15U U32A A41C, the self-cleavage worked out at 0.28.

Turning to C3U G17U A24G G29A, the self-cleavage was determined as 0.56.

C3U C10A G36U C37A A41C: the self-cleavage is 0.02.

For the variant A4C G5U G7C, the self-cleavage is 0.05.

As to C3U G7C C8G U28G C31G, the self-cleavage turned out to be 0.07.

For the variant C3U G36A G40A, the self-cleavage turned out to be 0.26.

In the case of C3U U9A A11U, the self-cleavage stood at 0.05.

Consider A4C A26U G35C G40U, for which the self-cleavage was 0.09.

In the case of C3U C8U U9A A12U U34C, the self-cleavage came to 0.49.

Turning to A4C G7C C18U G30A, the self-cleavage amounted to 0.33.

Consider C3U G7A A16U, for which the self-cleavage worked out at 0.22.

For the variant C3U C18G U43G C46A, the self-cleavage worked out at 0.3.

On to C3U G21C U34A, for which the self-cleavage amounted to 0.08.

With C3U G21C U34G, the self-cleavage is 0.04.

Take C3U G7U C18A G30A G40A: the self-cleavage worked out at 0.12.

On to C3U G5A G40U C45A C46U, for which the self-cleavage came to 0.09.

With A4C C10A C18A C46U, the self-cleavage amounted to 0.02.

As to A4C C31U C45U C46G, the self-cleavage came to 0.05.

As for A4C C15U A16C C46A, the self-cleavage was found to be 0.05.

Take C3U G21U U28A: the self-cleavage was 0.06.

Consider C3U C13U G17U G27U G35U, for which the self-cleavage came to 0.16.

For the variant A4C G5U G17A C46G, the self-cleavage is 0.01.

On to A4C C10U A39G, for which the self-cleavage was 0.01.

Take C3U U38A G40U: the self-cleavage was determined as 0.06.

As for C3U C18A G40U, the self-cleavage was determined as 0.09.

In the case of A4C G5C A25U, the self-cleavage is 0.06.

Take A4C C23U G29A G36U: the self-cleavage is 0.09.

As to C3U C13U G27C U28G, the self-cleavage is 0.14.

Consider A4C C8A A12G G35U, for which the self-cleavage came out at 0.06.

On to A4C A12G U28G, for which the self-cleavage is 0.14.

Consider A4C C10U U28G G40U, for which the self-cleavage was 0.01.

On to A4C C10A A24U G33A, for which the self-cleavage came to 0.02.

Consider C3U G17A G22C C31G G40C C42U U43A, for which the self-cleavage turned out to be 0.01.

With C3U C10U G19A, the self-cleavage is 0.19.

On to C3U G5A G7A, for which the self-cleavage worked out at 1.06.

Consider C3U C13U G44U, for which the self-cleavage stood at 0.05.

On to C3U U9A C23A A24U, for which the self-cleavage was 0.17.

A4C A16C G30C: the self-cleavage was found to be 0.11.

Consider C3U G21A G29U G35A, for which the self-cleavage came out at 1.36.

As for C3U C10A A12U C37G G40C C46U, the self-cleavage was 0.01.

Turning to A4C A14G C15G G35A G36A, the self-cleavage came out at 0.01.

Consider C3U C13U A26G, for which the self-cleavage amounted to 0.1.

As to C3U U20A G36A C42A, the self-cleavage came to 0.61.

Regarding C3U G5C A12U A26C, the self-cleavage was 0.06.

As for C3U U20C U38C, the self-cleavage worked out at 0.49.

Take A4C A6G A12C: the self-cleavage was 0.02.

Regarding C3U G22A C31A G40A, the self-cleavage was found to be 0.01.

C3U G21U U28C G29C U38A: the self-cleavage was 0.02.

For C3U G5U C10G G30U, the self-cleavage amounted to 0.01.

For the variant A4C A39G G40C, the self-cleavage turned out to be 0.05.

As to C3U G19U A24G A25C, the self-cleavage turned out to be 0.15.

For the variant A4C C15U G30U G35C, the self-cleavage stood at 1.84.

With C3U G5A G27C G36C, the self-cleavage came to 0.19.

For C3U C23A G35U C45U, the self-cleavage amounted to 0.22.

For C3U C10A U43C, the self-cleavage turned out to be 0.02.

A4C A12U G29A C37U G40A U43A: the self-cleavage was found to be 0.28.

Regarding A4C C10A C13U G19C U20A, the self-cleavage was determined as 0.01.

Take A4C C10A C13A A26U U34A: the self-cleavage amounted to 0.02.

As to A4C A14G C15A C37A, the self-cleavage came out at 0.03.

As to A4C A11U G22C U43A, the self-cleavage is 0.01.

As for C3U U9C C18A G35A C37U G44A, the self-cleavage turned out to be 0.01.

Take A4C G21C A26C C46U: the self-cleavage came to 1.37.

In the case of A4C A14U U32G C37A A41U, the self-cleavage is 0.2.

Take A4C A6C G21A G27C U32A G35U: the self-cleavage stood at 0.13.

Turning to C3U G5A G7C C23G A24G, the self-cleavage stood at 0.08.

As to C3U C10A U28A, the self-cleavage was found to be 0.04.

As for C3U U20G C31U A41C, the self-cleavage is 0.07.

Consider A4C G17A U20G U38C C45A, for which the self-cleavage turned out to be 0.02.

Regarding A4C C13U U28C, the self-cleavage came to 0.19.

As for C3U U9A C10A, the self-cleavage turned out to be 0.03.

For C3U C23A A26U C31A, the self-cleavage turned out to be 0.01.

On to C3U G44C C46A, for which the self-cleavage turned out to be 0.07.

Consider C3U C13A A16U G21A C37U, for which the self-cleavage stood at 0.77.

As for C3U U28C G29U, the self-cleavage came out at 0.18.

As to A4C A14C A41C C45A, the self-cleavage is 0.02.

Regarding C3U C18U U32C U38A, the self-cleavage stood at 0.05.

Consider A4C C18A G30A U43A, for which the self-cleavage was 0.05.

Take C3U C18A G35C: the self-cleavage came to 0.04.

With C3U G21C A25G A26G G29C, the self-cleavage worked out at 0.13.

As to A4C A14G A24G C37A, the self-cleavage is 0.02.

Regarding C3U C10G U20G, the self-cleavage came to 0.02.

As to C3U C15A A16U, the self-cleavage was determined as 0.08.

Turning to A4C G7C A12U U28G G40C G44A, the self-cleavage was 0.39.

For the variant A4C A25C U43A G44U, the self-cleavage came out at 0.05.

In the case of A4C A6U C23G A24C C42A, the self-cleavage came to 0.02.
